Experimental data as given in the supplement of paper PMC3334620.
In all, about 33,000 sequences were measured (“E-score (-0.5 to 0.5)”: median about -0.043, highest 2% from about 0.37 on). This is one part of the list.

biological target: T1, Upc2 (UniProt Q12151); test: PBM E-score (8-mer binding enrichment) (E-score (-0.5 to 0.5)); higher = stronger / more preferred TF binding; most listed sequences are background and not binding sites; details: protein concentration: 200 nM; construct: GST-full length
T1 sequence: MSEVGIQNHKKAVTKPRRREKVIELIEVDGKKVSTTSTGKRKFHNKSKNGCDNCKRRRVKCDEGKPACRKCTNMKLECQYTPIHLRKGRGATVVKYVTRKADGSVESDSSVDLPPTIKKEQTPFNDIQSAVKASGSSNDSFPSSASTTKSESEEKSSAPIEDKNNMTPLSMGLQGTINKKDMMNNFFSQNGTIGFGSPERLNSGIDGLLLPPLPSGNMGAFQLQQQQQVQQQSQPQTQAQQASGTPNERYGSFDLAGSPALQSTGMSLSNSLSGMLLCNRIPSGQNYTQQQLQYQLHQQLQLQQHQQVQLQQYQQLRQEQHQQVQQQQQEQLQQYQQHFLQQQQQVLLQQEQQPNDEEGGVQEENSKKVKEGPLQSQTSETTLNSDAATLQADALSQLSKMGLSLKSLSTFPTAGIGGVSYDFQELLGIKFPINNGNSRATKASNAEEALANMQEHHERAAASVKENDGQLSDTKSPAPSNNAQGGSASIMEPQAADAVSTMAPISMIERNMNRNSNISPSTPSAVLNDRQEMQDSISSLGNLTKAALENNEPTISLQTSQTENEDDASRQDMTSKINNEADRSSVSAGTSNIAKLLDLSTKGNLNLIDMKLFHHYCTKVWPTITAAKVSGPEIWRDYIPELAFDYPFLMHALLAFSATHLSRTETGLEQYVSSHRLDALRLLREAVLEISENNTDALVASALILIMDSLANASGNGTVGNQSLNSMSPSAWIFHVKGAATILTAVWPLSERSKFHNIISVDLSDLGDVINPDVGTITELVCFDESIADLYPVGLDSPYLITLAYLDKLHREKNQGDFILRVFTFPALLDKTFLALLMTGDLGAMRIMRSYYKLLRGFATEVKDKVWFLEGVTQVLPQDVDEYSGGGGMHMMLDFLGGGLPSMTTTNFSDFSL
Method in brief: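 Bound GST-tagged yeast transcription factors, applied at about 100-200 nM to double-stranded universal all-10-mer Agilent arrays, were detected with fluorescent anti-GST. Scans were normalised with masliner. A modified Wilcoxon-Mann-Whitney statistic, the E-score, was assigned to each ungapped eight-base word pooled with its reverse complement by the Universal PBM Analysis Suite.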

Sequence | PBM E-score
CCGGGCGA | -0.135
AAACCGAG | 0.214
ATGACACG | -0.0577
AGCGTCGC | 0.262
AGGACGGA | -0.134
GCATAATA | 0.198
AAGCAGGG | -0.096
ACTACAGC | -0.157
CTGTCCAC | -0.19
AAATATAA | -0.00275
CCACGAGG | -0.0572
TGTTGGAA | -0.0759
CATGCCCC | -0.163
AACACGCA | -0.124
CGTCTCCC | -0.17
AGACTTGA | -0.0254
GCATGCGC | -0.0143
AGTACAAT | 0.0921
CCGAAATC | -0.0366
CGTCTTAC | 0.2
CCCTTACG | 0.224
TGTGCAAA | 0.155
CATATCTA | 9e-05
AGCGGGTA | 0.0449
GGCTCAAC | -0.232

Sequence | PBM E-score
CACTTTAG | -0.302
ATTGAGAC | -0.242
GGATGTAA | 0.0769
GGATTCTA | -0.0488
CTCGTAGC | 0.4
ATCTGTTC | 0.0527
GCAGAGGC | -0.31
AAATAACG | 0.216
ATCGCCTG | -0.322
CGGGCGAG | -0.043
AGACGCAA | -0.209
GGGCAGAA | -0.121
GAGCGTGC | 0.0921
AGCAGATC | -0.0952
ATATTTGC | 0.0538
ATCGCAGG | -0.0887
CTGTCTTA | 0.085
AGACACGG | -0.216
ATGCCCCA | -0.172
CGACTAGC | -0.0855
CAAGGAGG | -0.142
AGAATCCG | 0.0767
AATCTTCT | -0.207
TCGGGAGA | -0.0351
CTGTGACA | -0.246

Sequence | PBM E-score
ATAGACGC | -0.0964
CCGCTGCA | -0.117
ATCAGGAA | -0.0338
CTGCGAAG | -0.0517
AACAGAGC | -0.118
AACATCTG | -0.0922
AGCCGAGA | -0.0386
GGCACCCC | -0.0796
TCCTCAGA | -0.193
CGCGCAAG | 0.0883
CAACAACC | 0.114
CTAAGTTA | -0.0439
AAGATCAT | 0.0203
CCTCTGAC | -0.275
CGAGCCAC | 0.0689
CCGAATAA | 0.177
CCACAAAG | -0.0612
ACCCACAT | -0.0118
GTACGCTA | 0.264
ACAGAAGA | -0.185
ACGGTGTG | 0.0764
ACATTTTG | -0.142
CGGCCCAA | 0.167
CGGAACCA | -0.128
ATTGATGA | -0.0663

Sequence | PBM E-score
GACTAGCC | -0.156
ACCGCGAG | 0.136
TTAGTAAA | 0.133
AGGGGATG | -0.179
AAGTAGGC | -0.0459
AGATGCCG | 0.084
ACGATGGA | 0.344
AGCATAGG | -0.219
CGGATATC | 0.202
ATAGTCGA | -0.018
ACACTAGA | 0.0609
CCCATGCA | -0.319
TCTATAAA | 0.218
CATCTTAC | -0.0542
ACAACTAT | -0.0179
GCTATAGC | -0.0757
AAGCTAGG | -0.171
CCCCAGTC | -0.00479
CAGCAATA | -0.177
AGGGCTTC | -0.0752
ATCAAGAT | -0.0977
GGCCGATA | -0.0563
ACCTATCG | 0.0607
TTCACGAA | 0.139
ATGGCTTA | 0.0249

Sequence | PBM E-score
TACTTTAA | 0.0517
ACAAGGGG | -0.17
CAGGCCCC | -0.175
CCAATATA | -0.119
CATTCCGG | -0.196
GCCATTAC | 0.0133
GATTTAAA | -0.102
CGTCTTGC | -0.0751
GCTTGTTA | 0.117
GCCCTTTA | -0.0758
AATAAGCT | -0.0583
ACCACCAT | -0.0573
CCCTTGCC | -0.128
GATTTTGC | -0.0509
GCGACACC | 0.0389
ACCCCTTC | -0.246
CATCGCCG | 0.009
CCACCGGC | -0.154
CGTCTTTA | 0.133
ATCGGGTC | 0.0529
CAGCACTC | 0.0219
ATTCTTAA | 0.176
CCGGGAAC | 0.175
GCTATCCA | -0.0191
GCGGCAAC | -0.114

Sequence | PBM E-score
ACATGCGA | 0.128
CGTTAGAG | 0.104
ATGTGGTA | -0.0775
GCGAGAGA | -0.11
ACTGATCT | 0.0925
GAGGACAC | -0.0694
ACCTCCAC | -0.229
CCCTTTTA | -0.262
GCCATACC | -0.035
CGGACTAG | -0.202
TCGTCAGA | -0.231
AGGATAGG | -0.0689
GAGTTATA | 0.039
GGCGAGGA | -0.182
CCGACTCC | -0.0901
GGTAATCA | -0.163
CTTGCGTC | -0.109
TAAAAGGA | 0.0854
GACGTGGA | -0.114
AAGTAGCC | -0.268
AGAGAGAC | -0.252
GCGAATTA | 0.179
GAGCTTGC | -0.231
ACAATTGG | -0.118
AACATTTC | -0.0609

Sequence | PBM E-score
ACAGCGCA | -0.233
ATCCGGCG | -0.0413
ATACGGAT | 0.357
AAATCCAT | 0.0546
AGCTACAG | -0.329
ATGTGAAT | 0.12
AGTTTACA | -0.0264
AAAGAAGC | -0.0105
CCTCCTTC | -0.183
CCAAGCGC | -0.251
ATTAGCAC | 0.0776
GGACTGCC | -0.21
GGACTATA | 0.00055
AGGTACCG | 0.028
CGAATTGC | 0.152
TCGCGGAA | 0.00431
GAATCTGC | -0.114
CTACCCCC | -0.339
GAGCCGCA | -0.0151
CCGACCGA | 0.0988
ATGATTTA | -0.0121
ACACCGAC | 0.0418
GGCAAATA | 0.0411
CATCGGGA | -0.0687
CAGGAGGG | -0.344

Sequence | PBM E-score
GTCCCATA | 0.0108
CGGACACC | -0.11
AGCGGAGC | 0.0226
GGGCGTTA | 0.0857
GTCCGACA | -0.016
TAGTCTGA | -0.194
CGGATCAA | -0.0565
CCGCCGCA | 0.00226
CTCTCATC | -0.078
CCCGGATA | -0.00303
CGTCCACA | -0.175
GGCTCTAC | 0.0291
TAAGACAA | 0.0602
CATAATTA | -0.00138
CTCCGAGC | 0.0315
AAGATGTA | 0.0093
ACGGGTTC | -0.0214
ACCCTAAT | -0.14
GACGGTGA | -0.112
CGTAGAGC | 0.201
CCATTCGA | -0.027
GCAACCAA | -0.155
CTTCCCAC | -0.00438
GGAACACC | -0.233
AGAACTAA | -0.0173

Sequence | PBM E-score
ATCGACGG | -0.132
GACCCTCC | -0.0284
TCAACGCA | 0.014
AGAGATAA | -0.106
CACACACG | 0.0146
ATCGGCTG | -0.158
CGTGGACC | -0.132
AGTTTTTC | -0.0455
AACGCAGA | 0.103
CGTTGCCA | 0.165
GGGCTGAA | -0.094
ATCGATTC | 0.0179
GCGCAATA | 0.144
ATCAGGGG | -0.186
AGAAGGGC | -0.0899
GGCACATA | -0.0498
GTGTCCCA | -0.077
CAGCGAAC | 0.0986
GGAGGCAA | -0.152
